In PMC5547134:
No constants are given. Whether binding was seen depends on the method and setting. Binding seen in cells or lysates may run through a third protein. Some entries that bind do so weakly or less than the wild type. Tags and fused reporters may be left off the sequences shown.

By UniProt entry, the sequences of proteins in these tests, tags left out.
UniProt Q6PDM2: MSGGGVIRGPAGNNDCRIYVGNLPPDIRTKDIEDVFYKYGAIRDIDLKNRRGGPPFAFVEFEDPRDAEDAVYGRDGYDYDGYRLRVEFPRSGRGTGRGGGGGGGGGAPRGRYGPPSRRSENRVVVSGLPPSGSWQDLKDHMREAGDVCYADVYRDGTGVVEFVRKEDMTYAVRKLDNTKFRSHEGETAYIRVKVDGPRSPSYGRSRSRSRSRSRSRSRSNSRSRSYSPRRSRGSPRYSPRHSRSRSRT

T1: Myc-tagged ILDR1 cytoplasmic fragment (mouse) (mouse) (UniProt Q8CBR1)
T1 sequence: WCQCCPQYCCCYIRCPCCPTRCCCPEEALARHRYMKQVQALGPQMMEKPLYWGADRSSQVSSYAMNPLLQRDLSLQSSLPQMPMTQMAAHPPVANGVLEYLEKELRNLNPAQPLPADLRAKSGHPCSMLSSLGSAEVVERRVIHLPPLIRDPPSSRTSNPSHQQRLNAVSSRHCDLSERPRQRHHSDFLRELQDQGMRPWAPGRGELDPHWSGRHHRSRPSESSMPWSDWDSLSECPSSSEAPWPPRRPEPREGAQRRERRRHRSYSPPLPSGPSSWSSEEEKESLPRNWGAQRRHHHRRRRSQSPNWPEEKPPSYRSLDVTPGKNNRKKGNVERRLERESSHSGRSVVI

T2: Myc-tagged cytoplasmic fragment of LSR (mouse) (mouse) (UniProt Q99KG5)
T2 sequence: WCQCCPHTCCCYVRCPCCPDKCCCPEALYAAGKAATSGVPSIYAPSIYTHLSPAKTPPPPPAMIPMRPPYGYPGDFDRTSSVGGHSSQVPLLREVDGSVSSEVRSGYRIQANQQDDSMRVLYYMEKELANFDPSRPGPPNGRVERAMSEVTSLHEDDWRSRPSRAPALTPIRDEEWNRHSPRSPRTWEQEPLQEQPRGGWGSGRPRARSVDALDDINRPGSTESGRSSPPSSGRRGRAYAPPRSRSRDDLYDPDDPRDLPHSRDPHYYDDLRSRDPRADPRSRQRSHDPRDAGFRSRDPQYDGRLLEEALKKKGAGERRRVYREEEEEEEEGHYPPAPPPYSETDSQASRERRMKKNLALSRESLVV

T3: Myc-tagged cytoplasmic fragment of ILDR2 (mouse) (mouse) (UniProt B5TVM2)
T3 sequence: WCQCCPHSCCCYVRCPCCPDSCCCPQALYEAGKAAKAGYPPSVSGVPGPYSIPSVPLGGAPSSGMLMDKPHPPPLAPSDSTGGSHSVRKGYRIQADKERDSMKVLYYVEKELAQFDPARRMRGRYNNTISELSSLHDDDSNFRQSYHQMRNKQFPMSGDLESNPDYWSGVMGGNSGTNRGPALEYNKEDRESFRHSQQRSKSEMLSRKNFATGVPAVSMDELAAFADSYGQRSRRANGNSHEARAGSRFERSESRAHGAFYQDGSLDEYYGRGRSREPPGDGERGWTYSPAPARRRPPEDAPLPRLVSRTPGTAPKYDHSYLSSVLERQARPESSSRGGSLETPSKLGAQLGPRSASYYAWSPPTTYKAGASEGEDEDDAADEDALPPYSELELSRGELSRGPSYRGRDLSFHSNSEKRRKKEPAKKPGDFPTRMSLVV

T4: Myc-tagged TRA2A (mouse) (mouse) (UniProt Q6PFR5)
T4 sequence: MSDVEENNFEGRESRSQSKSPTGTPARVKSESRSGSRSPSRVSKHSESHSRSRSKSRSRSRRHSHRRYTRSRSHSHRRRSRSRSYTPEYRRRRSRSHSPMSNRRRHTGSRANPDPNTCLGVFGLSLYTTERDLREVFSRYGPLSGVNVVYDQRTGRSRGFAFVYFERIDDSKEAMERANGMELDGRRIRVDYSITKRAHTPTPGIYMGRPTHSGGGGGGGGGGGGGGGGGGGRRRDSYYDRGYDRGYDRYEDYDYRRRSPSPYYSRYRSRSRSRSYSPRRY

T5: Myc-tagged SRSF5 (mouse) (mouse) (UniProt O35326)
T5 sequence: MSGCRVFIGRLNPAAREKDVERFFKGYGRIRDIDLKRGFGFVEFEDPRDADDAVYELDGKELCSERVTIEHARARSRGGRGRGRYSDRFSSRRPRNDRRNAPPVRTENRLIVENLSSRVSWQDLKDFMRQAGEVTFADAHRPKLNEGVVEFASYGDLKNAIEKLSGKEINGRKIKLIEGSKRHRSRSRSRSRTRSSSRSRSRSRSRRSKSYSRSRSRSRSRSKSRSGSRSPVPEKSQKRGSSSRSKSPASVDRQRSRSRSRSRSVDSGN

T6: Myc-tagged TRA2B (mouse) (mouse) (UniProt P62996)
T6 sequence: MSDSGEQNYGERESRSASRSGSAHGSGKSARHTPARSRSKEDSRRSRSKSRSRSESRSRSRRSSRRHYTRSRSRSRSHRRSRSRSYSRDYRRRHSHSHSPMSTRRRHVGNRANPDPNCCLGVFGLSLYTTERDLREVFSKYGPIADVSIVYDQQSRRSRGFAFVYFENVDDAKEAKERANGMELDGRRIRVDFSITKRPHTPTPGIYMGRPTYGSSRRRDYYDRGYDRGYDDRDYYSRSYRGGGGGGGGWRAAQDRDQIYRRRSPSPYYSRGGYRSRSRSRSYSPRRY


Experiments:
Assay in all cases: co-IP; HEK293T co-transfected; lysis in 150 mM NaCl, 50 mM Tris pH 7.5, 1% Triton X-100; immobilised anti-Myc antibody at 4 °C overnight; washed three times with 500 mM lysis buffer; western blot with anti-GFP or anti-Myc
[1] = target: T1, Myc-tagged ILDR1 cytoplasmic fragment (mouse) (mouse)
[2] = target: T2, Myc-tagged cytoplasmic fragment of LSR (mouse) (mouse)
[3] = target: T3, Myc-tagged cytoplasmic fragment of ILDR2 (mouse) (mouse)
[4] = target: T4, Myc-tagged TRA2A (mouse) (mouse)
[5] = target: Myc-tagged SRSF1 (mouse) (mouse) (UniProt Q6PDM2)
[6] = target: T5, Myc-tagged SRSF5 (mouse) (mouse)
[7] = target: T6, Myc-tagged TRA2B (mouse) (mouse)

binding [1] | binding [2] | binding [3] | binding [4] | binding [5] | binding [6] | binding [7] | Molecule
binds | binds | binds | – | – | – | – | EGFP-tagged mouse SRSF1 (from UniProt Q6PDM2 1-248)
no binding | – | – | – | – | – | – | EGFP-tagged TRA2A RRM domain (mouse) (domain or fragment, UniProt Q6PFR5 117-195) TCLGVFGLSLYTTERDLREVFSRYGPLSGVNVVYDQRTGRSRGFAFVYFERIDDSKEAMERANGMELDGRRIRVDYSIT
– | – | – | binds | binds | no binding | binds | EGFP-tagged full-length ILDR1 (mouse) (protein, UniProt Q8CBR1 23-537) LLVTVQHTERYVTLFASVTLKCDYTTSAQLQDVVVTWRFKSFCKDPIFDYFSASYQAALSLGQDPSNDCSDNQREVRIVAQRRGQSEPVLGVDYRQRKITIQNRADLVINEVMWWDHGVYYCTIEAPGDTSGDPDKEVKLIVLHWLTVIFIILGALLLLLLIGVCWCQCCPQYCCCYIRCPCCPTRCCCPEEALARHRYMKQVQALGPQMMEKPLYWGADRSSQVSSYAMNPLLQRDLSLQSSLPQMPMTQMAAHPPVANGVLEYLEKELRNLNPAQPLPADLRAKSGHPCSMLSSLGSAEVVERRVIHLPPLIRDPPSSRTSNPSHQQRLNAVSSRHCDLSERPRQRHHSDFLRELQDQGMRPWAPGRGELDPHWSGRHHRSRPSESSMPWSDWDSLSECPSSSEAPWPPRRPEPREGAQRRERRRHRSYSPPLPSGPSSWSSEEEKESLPRNWGAQRRHHHRRRRSQSPNWPEEKPPSYRSLDVTPGKNNRKKGNVERRLERESSHSGRSVVI
binds | binds | binds | – | – | – | – | EGFP-tagged mouse TRA2A (protein, UniProt Q6PFR5 1-281) MSDVEENNFEGRESRSQSKSPTGTPARVKSESRSGSRSPSRVSKHSESHSRSRSKSRSRSRRHSHRRYTRSRSHSHRRRSRSRSYTPEYRRRRSRSHSPMSNRRRHTGSRANPDPNTCLGVFGLSLYTTERDLREVFSRYGPLSGVNVVYDQRTGRSRGFAFVYFERIDDSKEAMERANGMELDGRRIRVDYSITKRAHTPTPGIYMGRPTHSGGGGGGGGGGGGGGGGGGGRRRDSYYDRGYDRGYDRYEDYDYRRRSPSPYYSRYRSRSRSRSYSPRRY
no binding | – | – | – | – | – | – | EGFP-tagged TRA2B RRM domain (mouse) (domain or fragment, UniProt P62996 118-196) CCLGVFGLSLYTTERDLREVFSKYGPIADVSIVYDQQSRRSRGFAFVYFENVDDAKEAKERANGMELDGRRIRVDFSIT
binds | binds | binds | – | – | – | – | EGFP-tagged mouse TRA2B (protein, UniProt P62996 1-288) MSDSGEQNYGERESRSASRSGSAHGSGKSARHTPARSRSKEDSRRSRSKSRSRSESRSRSRRSSRRHYTRSRSRSRSHRRSRSRSYSRDYRRRHSHSHSPMSTRRRHVGNRANPDPNCCLGVFGLSLYTTERDLREVFSKYGPIADVSIVYDQQSRRSRGFAFVYFENVDDAKEAKERANGMELDGRRIRVDFSITKRPHTPTPGIYMGRPTYGSSRRRDYYDRGYDRGYDDRDYYSRSYRGGGGGGGGWRAAQDRDQIYRRRSPSPYYSRGGYRSRSRSRSYSPRRY
